Results reported in paper PMC4336329 (PLoS ONE, 2015).
Among all 310,000 compounds or so, about 2,200 (0.71%) showed an effect of 50% or more. The effect is printed as a negative number. The list shows a part of the results.

target: human ether-à-go-go-related gene (hERG) potassium channel (human, UniProt Q12809); assay: primary screen, population patch clamp on CHO cells stably expressing hERG
Sequence (Q12809 whole entry, looked up): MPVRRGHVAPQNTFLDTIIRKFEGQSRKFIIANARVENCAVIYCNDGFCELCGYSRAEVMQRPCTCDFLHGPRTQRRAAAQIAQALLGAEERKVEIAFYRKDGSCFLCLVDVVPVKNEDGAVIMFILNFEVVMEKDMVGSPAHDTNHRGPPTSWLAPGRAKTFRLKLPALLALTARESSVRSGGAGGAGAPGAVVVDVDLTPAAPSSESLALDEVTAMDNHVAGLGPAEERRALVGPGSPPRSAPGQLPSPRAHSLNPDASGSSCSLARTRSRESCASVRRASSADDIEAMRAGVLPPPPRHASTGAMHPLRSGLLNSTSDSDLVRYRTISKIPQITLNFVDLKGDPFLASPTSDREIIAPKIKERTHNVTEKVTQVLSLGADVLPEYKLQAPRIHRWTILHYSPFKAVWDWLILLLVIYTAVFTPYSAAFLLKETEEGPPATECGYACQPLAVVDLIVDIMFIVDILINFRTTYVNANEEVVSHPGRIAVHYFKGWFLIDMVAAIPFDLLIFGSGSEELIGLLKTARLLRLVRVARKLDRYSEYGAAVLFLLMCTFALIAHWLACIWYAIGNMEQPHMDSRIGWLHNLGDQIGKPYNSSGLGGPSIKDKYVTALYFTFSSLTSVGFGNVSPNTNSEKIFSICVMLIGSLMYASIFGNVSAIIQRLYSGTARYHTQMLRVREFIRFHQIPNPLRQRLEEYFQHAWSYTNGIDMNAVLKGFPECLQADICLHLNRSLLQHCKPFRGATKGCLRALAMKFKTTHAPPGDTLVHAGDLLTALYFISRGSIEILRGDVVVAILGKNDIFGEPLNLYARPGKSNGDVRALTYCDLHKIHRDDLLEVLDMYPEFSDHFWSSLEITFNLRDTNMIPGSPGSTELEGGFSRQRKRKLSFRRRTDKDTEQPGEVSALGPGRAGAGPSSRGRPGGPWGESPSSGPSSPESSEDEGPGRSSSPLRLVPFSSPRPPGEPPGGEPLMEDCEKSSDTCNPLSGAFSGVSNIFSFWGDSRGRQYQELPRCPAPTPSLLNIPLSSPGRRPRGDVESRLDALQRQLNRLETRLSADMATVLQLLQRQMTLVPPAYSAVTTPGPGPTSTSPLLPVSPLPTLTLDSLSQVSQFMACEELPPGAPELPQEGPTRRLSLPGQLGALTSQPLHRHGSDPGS

| Compound | hERG current change (%, negative = inhibition) at 1uM [%] |
| --- | --- |
| O=C(N/N=C\c1cc([N+](=O)[O-])ccc1N1CCCC1)c1ccccn1 | 1.83 |
| CCCCSc1nc2c(cc1C#N)CCC2 | 5.55 |
| Cc1c(NC(=S)SCc2ccccc2)c(=O)n(-c2ccccc2)n1C | 10.8 |
| CCOc1cc(/C=C/C(=O)c2ccc(O)cc2)ccc1OCC(=O)N(C)C | -3.93 |
| N#Cc1c2c(c(-n3cnc4ccccc43)n3c1nc1ccccc13)CCC2 | 11.8 |
| O=[N+]([O-])c1ccc(Cl)c(/C=N/n2c(C3CCCCC3)n[nH]c2=S)c1 | -4.92 |
| COc1cccc(NC(=O)N2CCC(NC(=O)C(Cc3cccc(C)c3)NC(C)=O)CC2)c1 (centres unmarked) | 3.75 |
| O=C(c1ccc(S(=O)(=O)N2CCC(c3nc4ccccc4[nH]3)CC2)cc1)N1CCOCC1 | 3.71 |
| CC(C)OCC1CC(CC(=O)NC(=S)Nc2cccc([N+](=O)[O-])c2)C(=O)O1 (centres unmarked) | -8.66 |
| Cc1n[nH]c(=S)n(/N=C/c2cccc([N+](=O)[O-])c2)c1=O | 13.1 |
| Cc1cc(N/N=C/c2ccccc2)nc(N)n1 | 6.99 |
| CC1CC(C)CN(C(=O)C2CC(=O)N(c3ccc4c(c3)OCCO4)C2)C1 (centres unmarked) | 9.9 |
| Cc1ccccc1N1CCN(CCCCN2C(=O)C3CCCN3C2=O)CC1.Cl.O (centres unmarked) | -26 |
| CC(C)(C)S(=O)(=O)/C(C#N)=N/Nc1ccc(C#N)cc1 | 20.6 |
| O=C(N=Nc1ccc(NOC(=O)c2ccccc2Br)cc1)c1ccccc1O | 11.7 |
| FC(F)Oc1ccc(NC(=S)NN2CCOCC2)cc1 | 13.1 |
| C/C(=N\NC(=O)c1ccc(N2CCCC2=O)cc1)c1ccc(O)cc1O | 14.2 |
| Cc1c(/C(O)=C2/C(=O)C(=O)N(Cc3cccnc3)C2c2cccs2)cnn1-c1ccccc1 (centres unmarked) | 13.4 |
| N#Cc1ccccc1COC(=O)c1ccc2c(c1)OCO2 | -1.2 |
| Cc1ccc(C)c(CSc2nnc(C)c(=O)n2N)c1 | 6.96 |
| Cn1nnc2c[n+](CC(=O)c3ccc(Cl)cc3)cc(Br)c21.[Br-] | 4.21 |
| COc1cc2c(cc1OC)CN(S(=O)(=O)/C=C/c1ccccc1)CC2 | 14.9 |
| Fc1ccccc1CCNCc1cccc2ccccc12 | 14.1 |

| Compound | hERG current change (%, negative = inhibition) at 1uM [%] |
| --- | --- |
| COc1cccc(C(=O)NCCS(=O)(=O)NC2CCCC2)c1 | 11.1 |
| CCOC(=O)c1c(C)n(C)c2ccc(O)c(CN3CCC(C)CC3)c12 | -4.03 |
| CC(=C/c1ccco1)/C=N/NC(=O)c1nnn(-c2nonc2N)c1CN(C)C | -16.9 |
| COc1ccc(NC(=O)CCCCCn2nnc3ccccc3c2=O)cc1OC | 10.4 |
| Cn1c(CN2CCOCC2)nnc1SCC(=O)NC1CCCCC1 | 12.8 |
| COc1ccc(CC(=O)Nc2ccc(/C(C)=N/NC(=O)c3cccc([N+](=O)[O-])c3)cc2)cc1 | 14.2 |
| CC(NC(=S)Nc1ccc(OC(F)F)cc1OC(F)F)C(C)(C)C (centres unmarked) | 2.91 |
| CC(=O)N1CCN(c2ccc(NC(=O)c3cccc(Cl)c3Cl)cc2)CC1 | 3.68 |
| CCn1c(SCCC(C)C)nnc1-c1c[nH]c2ccccc12 | 5.05 |
| CCN(CC)CCN(Cc1cc2cccc(C)c2[nH]c1=O)C(=S)Nc1ccccc1 | -35 |
| COC(=O)C1=C(c2ccc(F)cc2F)C[C@@H]2CC[C@H]1N2C(=O)NCc1ccc2c(c1)OCO2 | 6.83 |
| COc1ccc(-c2nc(C#N)c(NCc3ccc(F)cc3)o2)cc1OC | 6.12 |
| O=C(Nc1nc2ccccc2s1)C1CC(=O)N(c2ccc(F)cc2)C1 (centres unmarked) | 1.41 |
| COC(=O)Nc1ccc(S(=O)(=O)N2CCC(C(=O)N3CCCCC3C)CC2)cc1 (centres unmarked) | 8.69 |
| O=C(O)C(=O)O.O=[N+]([O-])c1ccccc1S(=O)(=O)N1CCN(Cc2ccc3c(c2)OCO3)CC1 | 14.3 |
| CCO[C@@H]1OC(C(=O)NCc2ccccc2)=C[C@H](c2ccc3c(c2)OCO3)[C@H]1CCCO | 8.88 |
| CCOC(=O)N1CCN(C(=O)COc2cccc3c2CCN(CC)C3=O)CC1 | 16.5 |
| CCOC(=O)/C=C1\SCC(=O)N1CC(O)CN1C(=O)CS/C1=C\C(=O)OCC (centres unmarked) | 3.11 |
| COCCn1nnnc1C(c1cc2cccc(C)c2[nH]c1=O)N1CCN(c2ccccc2F)CC1 (centres unmarked) | 8.7 |
| NC(=O)CSc1nc(-c2ccccc2)nc2c1CCCC2 | 11.8 |
| CSc1nc(SCC(=O)NC(c2ccccc2)c2ccccc2)c2c3c(sc2n1)CN(C)CC3 | 0.389 |
| O=C(CC1C(=O)NCCN1C(=O)c1ccccc1)Nc1cc(Cl)ccc1Cl (centres unmarked) | 3.15 |
| COc1ccc(N2CCN(S(=O)(=O)c3ccc4oc(=O)ccc4c3)CC2)cc1 | 5.44 |

| Compound | hERG current change (%, negative = inhibition) at 1uM [%] |
| --- | --- |
| CC(=O)N/N=C(/c1ccccc1)C(O)c1ccccc1 (centres unmarked) | 9.66 |
| CCC(NC(=O)C1CCCO1)c1ccccc1 (centres unmarked) | 16.9 |
| Cc1cccc(N2CCN(c3ccc(N4C(=O)CCCC4=O)cc3[N+](=O)[O-])CC2C)c1 (centres unmarked) | 13.1 |
| NC(=O)C1CCCN(C(=O)c2ccc(Cl)cc2)C1 (centres unmarked) | 0.138 |
| Cc1cc(NC(=O)c2cccc(S(=O)(=O)N3CC(c4ccccc4)CC3=O)c2)no1 (centres unmarked) | 1.27 |
| O=C(CSc1nncc2ccccc12)Nc1cccc(O)c1 | 10.9 |
| COc1cc2c(cc1OC)CN(CC(=O)Nc1ccc(F)cc1F)CC2 | 5.13 |
| O=C(CCCOc1ccccc1)NN1C(=O)NC2(CCCCC2)C1=O | 25.2 |
| Cc1noc2c1C(c1ccc(N(C)C)cc1)C1=C(CC(C)(C)CC1=O)N2 (centres unmarked) | 7.27 |
| Cc1ccsc1C(=O)N/N=C/c1ccc2c(c1)OCO2 | 12 |
| CC(=O)Nc1cccc(NC(=O)c2csc(C)c2)c1 | 10.5 |
| Cc1ccc(-n2ncc3c(=O)[nH]c(SCC(=O)N4CCOCC4)nc32)cc1 | 8.3 |
| COCCSc1ccccc1C(=O)Nc1ccc(Br)cc1 | 10.6 |
| N#Cc1ccc(S(=O)(=O)NC2CCCCNC2=O)cc1 (centres unmarked) | 6.61 |
| Cc1c(C#N)c(NC(=O)CCl)n(Cc2ccccc2)c1C | 24.7 |
| Cc1ccc(CNS(=O)(=O)c2c(C(=O)N3CCCCC3)c(C)n(C)c2C)cc1 | 6.8 |
| CCCCCC(=O)Nc1sc(C)c(C)c1C#N | 1.66 |
| Cc1cc(NC(=O)CSc2ncnc3c2cnn3-c2cccc(Cl)c2)no1 | 7.61 |
| CSc1ncccc1C(=O)NNc1cc(Cl)ccc1Cl | 11.9 |
| C=CCNc1ncnc2c1[nH]c1ccc(Cl)cc12 | 0.0887 |
| Cc1ccc(/C=C2\SC(=S)N(/N=C/c3cc([N+](=O)[O-])ccc3O)C2=O)o1 | 8.62 |
| COc1cc(NC(=O)C2CCCCC2)c(OC)cc1NC(=O)CN1CCCCC1 | 5.77 |
| Cc1cccc(N2C(=O)CSC23CCCCC3)c1 | 16.8 |

| Compound | hERG current change (%, negative = inhibition) at 1uM [%] |
| --- | --- |
| Cc1ccc2c(c1)NC(=O)C(CC(=O)NCCN(C)C)O2 (centres unmarked) | 2.74 |
| COc1ccc(C(=O)N/N=c2\oc3ccccc3cc2C(N)=O)cc1 | 11.2 |
| CC(C(=O)OCC(=O)Nc1cccc(S(=O)(=O)N2CCOCC2)c1)N1C(=O)c2ccccc2C1=O (centres unmarked) | 18 |
| Cc1ccc(C(=O)O)cc1NC(=S)NC(=O)C(c1ccccc1)c1ccccc1 | 5.46 |
| COCCN1C(=O)CC(NNC(=O)c2ccc(S(=O)(=O)N3CCCC3)cc2)C1=O (centres unmarked) | 5.4 |
| CCOc1ccc(OCC)c(S(=O)(=O)NCc2ccccc2)c1 | 4.51 |
| Cc1cccc(NC(=O)CSc2ncnc3nc[nH]c23)c1 | 8.72 |
| CC(C)n1nc(C(=O)OCn2nnc3ccccc3c2=O)c2ccccc2c1=O | 12.1 |
| NC(=S)N/N=C/c1ccc(-c2ccc([N+](=O)[O-])cc2)o1 | 13.3 |
| O=C(COc1ccccc1)Nc1nn[nH]n1 | 2.85 |
| CC1CCN(S(=O)(=O)c2cnc[nH]2)CC1 | 15 |
| COc1ccc(C(=O)N=C2SC3CS(=O)(=O)CC3N2c2ccc(N(C)C)cc2)cc1OC (centres unmarked) | 9.99 |
| COc1ccc(CN2CCCCCC2)cc1OC | 2.9 |
| CSc1ccc(/C=C/C(=O)NC23CC4CC(CC(C4)C2)C3)cc1 | 13.8 |
| O=C(CCl)Nc1c(C(=O)Nc2ccc3c(c2)OCCO3)oc2ccccc12 | 11.7 |
| Cc1cc(C)c(-c2c(O)c3c(n(C)c2=O)CC(C)(C)CC3=O)c(C)c1 | 4.76 |
| Clc1ccccc1-c1nnc2sc(-c3ccc(Br)o3)nn12 | 3.17 |
| CCc1cc(C=NC2CCCCC2)c(O)s1 | 11.4 |
| CCOc1ccccc1Nc1nnc(SCC(=O)Nc2ccc3[nH]c(=O)[nH]c3c2)s1 | -5.22 |
| COc1cc(C#Cc2c(-c3cncn3C)n(C)c3ccc(-c4cnc(OC)nc4)cc23)cc(OC)c1 | 15.1 |
